Molecules are shown by their SMILES. “And” between values parts separate entries of the source, which are not always exact repeats. Equal values may be shown once.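 The compound was tested at five concentrations on cells cultured in 96-well plates, with a 48-hour exposure period. GI50: concentration for 50% inhibition of growth. TGI is the concentration that stops growth completely.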

This assay relates to NCI-H322M lung. The experiment in a line: DTP human tumour cell line panel, 48 h.
Broadly, the GI50 is the concentration at which growth is held to half of that of the control. As a reminder, the TGI is the concentration giving total growth inhibition. Low readings indicate more potent growth arrest, high ones less potent growth arrest. With `COc1cc(CNc2nc3c(N)cc(C(F)(F)F)cc3nc2-c2ccccc2)cc(OC)c1OC`, the GI50 is > 100 µM and the TGI was > 100 µM.

Turning to `Cc1ccc(S(=O)(=O)NC(CCC(=O)NNc2ccccc2)C(=O)NNc2ccccc2)cc1` (stereo not drawn), the TGI is > 100 µM.

Take `CC1CC/C(=C\c2ccc(F)cc2)C2=C1C(c1ccc(F)cc1)N1C(=O)CSC1=N2` (stereo not drawn): the TGI is > 100 µM. `CC(=O)O[C@H]1CC[C@@]2(C)C(=CC[C@@H]3[C@@H]2CC[C@]2(C)C(=N/O)/C(=C\c4ccccc4)C[C@@H]32)C1` yielded a TGI of 61.2 µM. This lies in the double-digit micromolar range. On the same count and under the same terms, in the case of `O=C(CCN1CCOCC1)/C(=C/c1ccccc1)c1ccccc1` it was 28.8 µM. Consider `COc1ccc(/C=C(/c2ccccc2)[N+](=O)[O-])c(OC)c1`, for which the GI50 was 1.43 µM and the TGI came out at 2.77 µM.

On to `COc1ccc2c(c1)nc(NNC(=O)c1cnccn1)c1cccn12`, for which the GI50 was 0.119 µM and the TGI was 5.02 µM. Consider `O=P1(N2CCOCC2)OCCO1`, for which the TGI is > 100 µM. The same measure, in the same setting: the figure for `COc1ccc(C2C3=C(N=C4SC(C(C)=O)=C(C)N42)c2ccccc2CC3)cc1` (stereo not drawn) is > 100 µM. Consider `C[C@]12CC[C@H]3[C@@H](CCC4=CC(=O)C=C[C@@]43OC(=O)C(F)(F)F)[C@@H]1CCC2=O`, for which the TGI is > 100 µM. On the same count and under the same terms, the figure for `Cc1ccc(S(=O)(=O)N2C[C@@H]3CC[C@]4(CO[Si](C)(C)C(C)(C)C)N[C@@H](c5ccccc5)[C@H]2[C@H]34)cc1` is > 100 µM; for `C/C(CC(=O)NCCc1ccccc1)=N\NS(=O)(=O)c1ccc(C)cc1` it is > 100 µM. With `COc1cc2c3c(n(CCCN)c(=O)c2cc1OC)-c1ccc([N+](=O)[O-])cc1C3=O`, the GI50 is 16.3 µM and the TGI is 33.9 µM.

Consider `Cc1cn2c(/C=C3/C(=O)Nc4c3ccc3ccccc43)c(C(F)(F)F)nc2s1`, for which the GI50 is 3.95 µM and the TGI was > 100 µM. `C/C(CC(=O)Nc1cccc(Cl)c1C)=N\NC(N)=S`: the total growth inhibition concentration (TGI) was > 100 µM. For the compound `C1=NCCNCCNCCN=Cc2ccc(cc2)OCc2cccc(n2)COc2ccc1cc2`, the TGI is > 100 µM. `COc1ccc([C@H](CC(=O)O)N2CCN(CCCc3ccc4c(n3)NCCC4)C2=O)cn1`: the GI50 is > 100 µM and the TGI was > 100 µM. In the case of `C/C=C(\C)C(=O)OC1CC(OC(C)=O)C2(C(=O)OC)COC3C2C1(C)C1C2(C(=O)OC)OCC1(C3O)C1(O)C3CC(C4(O)C=COC4O3)C1(C)O2` (stereo not drawn), the TGI was > 100 µM. Still for that read-out and setting: in the case of `CC(C)N(C(=O)c1cccc(C(=O)N(C(C)C)C(C)C)c1)C(C)C` it was > 100 µM; in that of `CC(C)(C)OC(=O)NC12C3C4C1C1C2C3C41NC(=O)OC(C)(C)C` (stereo not drawn), > 100 µM; in that of `Cc1cc(C)c2c(c1)CC1(Cc3cc(C)c(C)cc3C1=O)C2=O` (stereo not drawn), > 100 µM.

`O=C1c2cc(Cc3ccccc3)c(=O)c(Cc3ccccc3)cc2C(=O)c2cc(Cc3ccccc3)c(=O)c(Cc3ccccc3)cc21`: the TGI is > 100 µM. On the same count and under the same terms, the figure for `CC(=O)n1cc(C2CC23N=C(c2ccccc2)OC3=O)c2ccccc21` (stereo not drawn) is > 86 µM; for `Cc1c(CNc2ccc(C(=O)NC(CCCNC(=O)c3ccccc3C(=O)O)C(=O)O)cc2)cnc2nc(N)nc(N)c12` (stereo not drawn) it is 4.28 µM.

`Nc1cc2c(c3ccccc13)C(CCl)CN2C(=O)c1cc2cc(NC(=O)Nc3ccc4[nH]c(C(=O)N5CC(CCl)c6c5cc(N)c5ccccc65)cc4c3)ccc2[nH]1` (stereo not drawn) gave a TGI of 4.74 µM. `O=C(CCN1CCCC1)Nc1ccc2c(NCc3ccccc3)c3ccccc3nc2c1`: the concentration for 50% growth inhibition (GI50) was 0.359 µM and the TGI was 1.72 µM. In the same order, the values of `COc1ccc(C(=O)Cn2c(C(=O)c3ccccc3)nc3ccccc32)cc1` are 37.4 µM and > 100 µM. In the case of `COc1ccc(-c2c(C)c(C(=O)O)nc(-c3ccc4c(O)c(OC)c5c(c4n3)=NC(C)(C)N=5)c2N)c(O)c1OC`, the concentration for total growth inhibition (TGI) is 73.1 µM. The compound `CCC1(O)CC(OC2CC(N(C)C)C(OC3CC(O)C(OC4OC(C)C(=O)C=C4N)C(C)O3)C(C)O2)c2c(cc3c(c2O)C(=O)c2c(O)cccc2C3=O)C1C(=O)OC` (stereo not drawn) displayed a total growth inhibition concentration (TGI) of 10.1 µM. This TGI is about 7.2-fold lower than that of the compound before. The same measure, in the same setting: the figure for `CNc1nnc(CCCCCCCCc2nnc(NC)o2)o1` is > 100 µM. Consider `CCCCNNC(=O)c1ccc(Br)cc1`, for which the GI50 was 10.4 µM and the TGI was > 50 µM. On to `Nc1ccc(-c2nc3ccccc3s2)cc1Cl`, for which the TGI was > 100 µM.

In the case of `COC(=O)C1=C(OC(=O)/C(=C/c2ccccc2)c2ccc(OC)cc2)C(C(=O)OC)[C@@]2(O)[C@@H](C(=O)OC)[C@H](C)C[C@@H]1[C@@H]2C(=O)OC` (stereo partly drawn), the total growth inhibition concentration (TGI) was > 100 µM. As for `C#C[C@]1(O)CC[C@H]2[C@@H]3CC=C4c5sc(Nc6cc(F)ccc6F)nc5CC[C@]4(C)[C@H]3CC[C@@]21C`, the GI50 was 1.85 µM and the TGI stood at 4.83 µM.

For `Cc1ccc(S(=O)(=O)N/N=C(\c2nc3ccc(Cl)cc3[nH]c2=O)C(O)c2ccco2)cc1` (stereo not drawn), the TGI is > 100 µM.

On to `COc1ccc(-c2cc(=O)n(-c3nc4ccccc4[nH]3)[nH]2)cc1OC`, for which the GI50 is 9.94 µM and the TGI was found to be 86.6 µM.

`C=C(C(=O)O[C@H]1C/C(C)=C/CC/C(CO)=C/[C@H]2C(=O)OC(=C)[C@H]12)C(O)CO` (stereo partly drawn): the TGI was determined as 34.4 µM. Same read-out and setting: in the case of `Cc1cc2c(c(C(N)=O)c1C)-c1cccc(F)c1C2=O` it was > 100 µM. Consider `O=C1NC(N/N=C\C(O)C(O)C(O)C(O)CO)=N/C1=C/c1ccccc1` (stereo not drawn), for which the GI50 was > 100 µM and 28.4 µM; the TGI is > 100 µM. As to `Cc1cc(N(CCC#N)S(=O)(=O)c2ccccc2)ccc1/C=C1\N=C(c2ccc(Cl)cc2)OC1=O`, the TGI is > 100 µM.

In the case of `COc1cccc(N=N/C(=N/NC(=O)c2ccc(C)cc2)c2ccc(N(CCC#N)CCC#N)cc2OC)c1`, the TGI stood at 36.8 µM. For `C=CC(=O)N1CCC(c2ccc(C(N)=O)c(-c3ccc(Oc4ccccc4)cc3)n2)CC1`, the GI50 was 22.8 µM and the TGI was > 100 µM. In the same order, the values of `Nc1ccn(C2CC(F)C(CO)O2)c(=O)n1` (stereo not drawn) are > 100 µM and > 100 µM. With `Cc1c(C(=O)C/C(=N/NC(=O)c2ccccc2)C(=O)Nc2ccc(Cl)cc2)[n+](=O)c2ccccc2n1[O-]`, the TGI was > 100 µM. As to `Fc1ccc(-c2ncn(C3CCNCC3)c2-c2ccnc(Oc3ccc4c(c3)OCO4)n2)cc1`, the GI50 was > 25 µM and the TGI was > 25 µM. `COC(=O)c1ccccc1C1CN=NC12Cc1c(ccc3c1CCC3)C2=O` (stereo not drawn): the TGI was > 100 µM.

Take `COC1C(OC(=O)c2ccc(C)[nH]2)C(O)C(Oc2ccc3c(O)c(NC(=O)c4c[nH]c(C(=O)Nc5c(O)c6ccc(OC7OC(C)(C)C(OC)C(OC(=O)c8ccc(C)[nH]8)C7O)c(C)c6oc5=O)c4C)c(=O)oc3c2C)OC1(C)C` (stereo not drawn): the TGI was 10.6 µM. With `COC(=O)c1c2c(c(C)[n+]([O-])c1C)C(=O)C=C(NCc1ccccc1)C2=O`, the GI50 is 1.28 µM and the TGI came out at 5.7 µM. The matching figures for `CN(C)c1ccc(Nc2c3ccccc3nc3ccccc23)cc1`: 1.62 µM and 5.11 µM. As for `O=C(Nc1sccc1S(=O)(=O)c1ccc(Cl)cc1)c1ccc(F)cc1F`, the TGI was > 100 µM.

For the compound `C1=C(c2ccccc2)C(N2CCOCC2)Oc2ccccc21` (stereo not drawn), the TGI is > 100 µM. The same measure, in the same setting: the figure for `COc1cc2cc(C(=O)N3CC(COS(C)(=O)=O)c4ccc(NC(=O)OCc5ccccc5)cc43)[nH]c2c(OC)c1OC` (stereo not drawn) is > 100 µM. Same read-out and setting: in the case of `C=C1CC(CC)(CCN2C(=O)c3ccccc3C2=O)OC1=O` (stereo not drawn) it was > 100 µM; in that of `CN1C(=O)c2ccc3ccccc3c2C1=O`, > 100 µM. Regarding `COC(C)(C)[C@@H](O)[C@H](O)C[C@H](C)C1=C2CC[C@@H]3[C@@]4(C)CC[C@@H](OC(C)=O)C(C)(C)[C@@H]4C[C@@H](OC4OC(COC(C)=O)C(O)C(O)C4O)[C@@]3(C)[C@]2(C)CC1` (stereo partly drawn), the GI50 was 12.8 µM and the TGI came to 25.5 µM.

The record behind these values is PubChem BioAssay (NCI).
